Measured values from ChEMBL document CHEMBL1156829.
“And” between values parts separate entries of the source, which are not always exact repeats. Identical values can stand only once. Over roughly 5,400 compounds, “IFI” has its median near 2; the highest 2% begin near 22. Some of the results follow.

Assay: NOVARTIS: Inhibition Frequency Index (IFI) - the number of HTS assays where a compound showed > 50% inhibition/induction, expressed as a percentage of the number of assays in which the compound was tested.
Format: functional

Compound | IFI
FC(F)(F)c1cccc(NC(=S)N2CCCC2c2ccccc2C(F)(F)F)c1 (configuration not stated) | 1.82%
CCOc1ccc(C(=O)Nc2cccc(-c3nc4cc(C)ccc4o3)c2C)cc1 | 0%
COC(=O)c1c(-c2c(Cl)cccc2Cl)noc1/C=C/Nc1ccc(Cl)cc1 | 5.33%
CN(C)CCCNc1ccnc2cc(Cl)ccc12 | 0%
OCCNc1nc(Nc2cccc(O)c2)nc2ccccc12 | 3.64%
Cc1ccc(C(C(=O)NC2CCCCC2)N(C(=O)c2ccc(-c3ccccc3)[nH]2)c2ccc(C3CCCCC3)cc2)o1 (configuration not stated) | 3.7%
CCOC(=O)C1=C(C)NC2=C(C(=O)C(C(=O)OCC)C(c3cccc(OC)c3)C2)C1c1ccc(OC)c(OC)c1 (configuration not stated) | 3.49%
CCCCCN(C(=O)c1ccc(Br)cc1)C(CC)c1nc2ccccc2c(=O)n1-c1ccccc1OC (configuration not stated) | 2.88%
N=C(N)NN=Cc1cccc(OCc2ccc(Cl)c(Cl)c2)c1 | 2.83%
CC1(C)Oc2ccc(C(=O)N3CCCC3)cc2N(CCc2ccccc2)C1=O | 0%
CCCCCCCCNC(=O)C1CC1c1ccccc1 (configuration not stated) | 1.82%
COc1cc2nc(Nc3ccc(F)cc3)nc(N)c2cc1OC | 0%
CCCCCC(=O)NCCCCCCNc1ccnc2cc(Cl)ccc12 | 0%
CC1(C)C2CCC(C2)C1(C)NC(=S)NN=Cc1ccccn1 (configuration not stated) | 26%
CCC(c1nc2ccccc2c(=O)n1CCOC)N1CCNCC1 (configuration not stated) | 3.31%
Cc1ccccc1C[n+]1cc(-c2ccc(Cl)cc2)n2c1CCC2 | 7.14%
CCn1cc(C(=O)NCCC2=CCCCC2)c(=O)c2cc(S(=O)(=O)N(C)C)ccc21 | 0%
CCc1ccc2c(c1)c1nnc(SCC(=O)NCCOC)nc1n2C | 0%
Cc1cc(C)c2c(c1)OCN(Cc1ccccc1Cl)C2 | 3.33%
COc1ccccc1CNC(=O)CN1C(=O)c2cccnc2Oc2ccccc21 | 0%
CCc1ccc(C(=O)C[n+]2cc(-c3ccc(C)cc3)n3c2CCC3)cc1 | 9.52%
CSc1nc(N)nc(SC2C=CCCC2)c1C#N (configuration not stated) | 0%
COc1ccc(C2C(C(=O)c3ccc(C)cc3)=C(O)C(=O)N2CCN2CCOCC2)c(OC)c1 (configuration not stated) | 0%

Compound | IFI
COc1ccc(CNC2CCN(c3cccc(NC(=O)C4CC4)c3)CC2)cc1 | 0%
COc1ccc(C(NC(=O)COc2ccccc2)c2cc(Cl)c3cccnc3c2O)cc1 (configuration not stated) | 15.4%
O=C1C2C(C(=O)N1c1ccc(Br)cc1)C1C=CC2C12CC2 (configuration not stated) | 0.935%
Nc1ccc2[nH]c(/C=C/c3ccc(Cl)cc3)nc2c1 | 7.69%
COc1ccc(C(=O)N2c3cc(C)ccc3C(Nc3ccc(C)cc3)CC2C)cc1 (configuration not stated) | 0%
Cc1ccc(S(=O)(=O)N(C)CCCNc2ccnc3cc(Cl)ccc23)cc1 | 9.68%
CC(=O)Nc1ccc2c(c1)C(=O)N(C(CC(C)(C)C)C(=O)NC1CCCCC1)[C@@H](CCC(=O)O)C(=O)N2 (some centres not stated) | 1.22%
CN(C)CCCNc1ncnc2c1[nH]c1ccc(Cl)cc12 | 11.8%
O=C(C1CCN(c2nnnn2-c2ccccc2)CC1)N1CCc2ccccc2C1 | 0%
CCC(Oc1ccc(C(C)(C)CC)cc1C(C)(C)CC)C(=O)Nc1ccc(Cl)c([N+](=O)[O-])c1 (configuration not stated) | 2.48%
O=C(COc1cccc(Br)c1)NN=Cc1ccccc1F | 0%
Cc1ccc2cc(C)c(Nc3ccc(Cl)cc3)nc2c1 | 4.54%
Cc1ccc(C)n1-c1ccc(N(C)C)cc1 | 4.76%
O=C(c1ccc(N2CC3CC(C2)c2cccc(=O)n2C3)c(NS(=O)(=O)c2ccc3c(c2)OCCO3)c1)N1CCN(c2ccccn2)CC1 (configuration not stated) | 1.16%
COc1ccc(OC)c(-c2ccc(O)c(CNCCc3ccccc3F)c2)c1 | 1.72%
Cc1cn2c3ccccc3n(CCN3CCOCC3)c2n1 | 0%
Oc1ccccc1Nc1nc(-c2ccccc2O)nc2ccccc12 | 0%
COCCN(Cc1cc2ccc(F)cc2nc1N1CCCCCC1)C(=O)c1ccoc1 | 2.94%
O=C(NCC1CCCO1)c1cnc(NCCCn2ccnc2)nc1NCCc1ccccc1 (configuration not stated) | 0.952%
Cc1ccc(N(C)C(=O)CCNS(=O)(=O)c2cc(Br)cnc2N)cc1 | 2.5%
O=S(=O)(Nc1ccc(F)cc1)N1CCCCCC1 | 0%
Cn1cc(C(c2cccs2)c2cn(C)c3ccccc23)c2ccccc21 | 17.5%
CCOC(=O)c1c[nH]c2c(ccc3ccccc32)c1=O | 0% and 1.59%

Compound | IFI
CN(CCCNc1ccc(C(=O)Nc2ccc(C(F)(F)F)cc2)cc1[N+](=O)[O-])Cc1ccccc1 | 0%
CCN1/C(=C/c2sc3ccc(-c4ccccc4)cc3[n+]2CCO)C=Cc2ccccc21 | 7.14%
COc1ccc(C2Nc3ccc(C(C)=O)cc3C3C=CCC32)cc1[N+](=O)[O-] (configuration not stated) | 0%
Cc1ccc(C)c(Oc2c(C(F)(F)F)oc3c(CN4CCN(C)CC4)c(O)ccc3c2=O)c1 | 0%
Cc1oc2c(c1C(=O)NCc1cccnc1)C(=O)c1ccccc1C2=O | 17.5%
O=C(CCl)Nc1ccc(CN2CCCCC2)cc1 | 0%
CCc1c(C(C)S(=O)(=O)c2ccc(C)cc2)[nH]c(=O)n1-c1ccc(OC(F)(F)F)cc1 (configuration not stated) | 1.22%
Cc1cccc(-n2ccnc2SCC(=O)Nc2cc(C(F)(F)F)ccc2Cl)c1 | 0%
O=C1C(=O)N(Cc2ccccc2[N+](=O)[O-])c2ccccc21 | 0%
Oc1ccc(-c2cnccn2)cc1CNC1CCN(Cc2ccccc2)CC1 | 5.56%
GNF-Pf-448, CHEMBL580641 | 30%
N=c1c2c(n(Cc3ccc(F)cc3)c3c1CCC3)CCC2 | 4.54%
COc1ccc(Cl)cc1NC(=S)NNC(=O)c1cccnc1 | 0%
CC(=O)Nc1ccc(N2C(=O)CSC2c2ccc(Br)cc2)cc1 (configuration not stated) | 0%
CCOc1ccc(NC(=O)c2ccc(F)c(S(=O)(=O)NC3CCCCCC3)c2)cc1 | 0%
CCOC(=O)c1cc(-c2ccc(OC)cc2)n(CCC(=O)Nc2cccc(C(C)=O)c2)c1C | 0%
Cc1c(-c2ccc(Cl)cc2)[n+]2c(n1-c1ccccc1)SCCC2 | 7.69%
O=C(c1ccc([N+](=O)[O-])cc1[N+](=O)[O-])N1CCCCC1 | 0%
O=C(NCCN(CCNc1ccnc2cc(Cl)ccc12)CCNc1ccnc2cc(Cl)ccc12)C1CCC1 | 0%
O=C(NCCCN1CCCCC1)c1ccc2c(c1)sc1nc(-c3ccc(F)cc3)cn12 | 0%
CN(C)c1ccc(C2Nc3ccccc3NC3=C2C(=O)CC(C)(C)C3)cc1 (configuration not stated) | 5.59%
